Reference: ChEMBL document CHEMBL4888484, “Replenishing the malaria drug discovery pipeline: Screening and hit evaluation of the MMV Hit Generation Library 1 (HGL1) against asexual blood stage Plasmodium falciparum ,using a nano luciferase reporter read-out” (2022)
Out of some 150,000 compounds screened, about 540 (0.36%) showed an effect of 50% or more. The list shows a part of the results.

tested on: Plasmodium falciparum; experiment: Primary screen in NF54 nanoGlo assay, in single point, at 2uM, 72h; a lower Z score goes with more inhibition; format: functional, Erythrocyte; details: timepoint 72 hour

Structure (SMILES) | % Inhibition | Z score
CC[C@@H](C(=O)NCc1ncc2c(n1)CCC2)n1cccn1 | -6% | 1.04
CN(C)[C@H]1[C@@H]2CC[C@H]1CN(C(=O)Cc1nc3cc(Cl)ccc3[nH]1)C2 | -7% | 1.09
COc1ccc(-c2csc3c2NC(=O)C[C@H]3c2cccs2)cc1 | -10% | 1.31
O=C(NCC1CCN(Cc2ncc[nH]2)CC1)c1ccon1 | -21% | 2.06
CC1(C)C[C@H](CNS(=O)(=O)C2CC2)C(C)(C)O1 | 1% | -0.06
Clc1ccc(CNc2nnc(N3CCOCC3)c3ccccc23)cc1 | -12% | 1.1
COc1cc(NCc2cn3ccnc3s2)nn1C | -1% | 0.07
Cc1ccoc1C(=O)N1CC[C@@]2(CCCN(CCc3ccccc3)C2)C1 | -6% | 1.1
CC[C@H]1COCCN1C(=O)CCCN1CCCC1=O | 5% | -0.7
O=C(NCc1nnc2cc(C(F)(F)F)ccn12)c1cnc[nH]1 | -26% | 5.24
CC(C)OC(=O)N1CCC2(CC1)CC(=O)N(C/C=C/c1ccccc1)C2 | -6% | 0.68
COc1cccc(NC(=O)Nc2ccc3c(c2)NC(=O)C(C)(C)O3)c1 | 38% | -5.11
c1ccc(CN2CCN(c3ncnc4c3nc3n4CCCCC3)CC2)cc1 | -13% | 1.58
Cc1nc2cc(C(=O)N3CCN(C)C(=O)C3)ccc2s1 | -13% | 1.23
CCCn1nc(COc2cccc(F)c2)nc1C1CCN(C(C)=O)CC1 | 4% | -0.65
COCCCN(Cc1ccc2nsnc2c1)C1CCN(C)CC1 | 3% | -0.64
COc1ccc(-c2nc3c(cnn3-c3ccccc3)c(N)c2S(C)(=O)=O)cc1 | -6% | 0.74
CC(=O)c1cccc(S(=O)(=O)N2CCCC[C@H]2c2nc(-c3ccccc3)c[nH]2)c1 | 5% | -0.62
CCN1CCN(C[C@@H]2CN(c3nccs3)C[C@@H]2CO)CC1 | -12% | 1.56
O=C(NC1CCCCCCC1)c1cc2n(n1)CCCN(Cc1ccc(Cl)cc1)C2=O | 4% | -0.7
CCc1nc(C)sc1CNC(=O)c1cn(C)c(=O)[nH]c1=O | 2% | -0.31
Cc1ccc(-n2ncc3c2CC(C)(C)C[C@@H]3NC(=O)C2CCOCC2)cc1 | -5% | 0.57
O=C([C@H]1CC(=O)N(c2ccc(F)c(Cl)c2)C1)N1CCN(C(c2ccccc2)c2ccccc2)CC1 | 37% | -4.16
CCC1(CC)NC(=O)N(CC2(COc3cccc(COC)c3)CCC2)C1=O | -7% | 0.74
COc1ccccc1N1CCN(C(=O)c2cn3c(n2)CC[C@H](c2ccccc2C)C3)CC1 | -15% | 1.44
C[C@@H](CCc1ccco1)Nc1cncc(-n2cccn2)n1 | 6% | -0.5
NC(=O)Nc1ccc(Br)c(Cl)c1Cl | 0% | 0.02

Structure (SMILES) | % Inhibition | Z score
CCOC(=O)c1nc(N2CCCC2)c2c(C)c(C)n(-c3ccccc3)c2n1 | -2% | 0.28
Cc1nc(C(C)C)sc1CNC(=O)CCn1nnnc1C | -8% | 1.25
Cc1c(C(=O)N2CCn3ccnc3[C@@H]2C(C)C)c(C)n(C)c1-c1ccccc1 | -4% | 0.47
CCN(CC(N)=O)[C@@H](Cc1ccc(C)cc1)C1CC1 | 5% | -0.54
CS(=O)(=O)N(C(=O)NC(=O)Nc1ccc(Cl)cc1Cl)C1CCCCC1 | -10% | 2
CCCc1ccc(S(=O)(=O)N2CCC3(CC2)Nc2ccc(C)c(C)c2-n2cccc23)cc1 | -4% | 0.58
O=C(NC1C2CC1N(CCOc1cccc(F)c1)C2)c1cc2ncccn2n1 (stereo unspecified) | 1% | -0.15
COCCOc1ccc(NS(=O)(=O)Cc2ccc3ccccc3c2)cn1 | -6% | 0.81
Cc1cc(C)n(CC2(CNC3CCN(c4ccc(F)cc4C)CC3)CC2)n1 | -8% | 1.54
CCCCc1nc(CN[C@@H](C)c2nncn2C)c[nH]1 | 0% | -0.02
O=C(NCc1nc(C2CC2)no1)c1cccc(S(=O)(=O)NC2CCC2)c1 | 12% | -1.49
COCC[C@H](C)N1CC(Oc2ccccc2)C1 | 2% | -0.21
CCN(CC)CC[C@H]1CN(C(=O)Cc2ccc(OC)cc2)CC[C@H]1CC(=O)O | 34% | -3.8
C[C@@H](c1ccncc1)N(C)Cc1cccc2nonc12 | -12% | 2.12
COCC1(NC(=O)c2ccc(C(C)C)n(C)c2=O)CCCC1 | 4% | -0.51
CN(C(=O)c1cnn(-c2ccc(Cl)cc2Cl)c1C1CC1)C1CC1 | -14% | 1.77
CCOC(=O)C1CCN(c2c(C#N)c(=O)n(C)c(=O)n2C)CC1 | -10% | 1.86
CCN(CC(=O)Nc1ccc2c(c1)OCCO2)S(=O)(=O)c1cnc2ccccc2c1 | -1% | 0.1
CCOc1ccc(-c2nnn(CN3CCC(C(=O)Nc4ccc(Br)cn4)CC3)n2)cc1 | -3% | 0.6
O=C(NC1CCN(C(=O)C2C3CCCCC32)CC1)c1ccoc1 (stereo unspecified) | 4% | -0.8
Cc1csc([C@H](C)N(C)C(=O)c2cnc(-c3csc(C)n3)nc2O)n1 | -4% | 0.77
C=CCOc1ccccc1[C@H]1CC(=O)NCc2nc3cc(C)ccn3c21 | -3% | 0.48
CCc1nc(C)sc1C(=O)N[C@@H]1C[C@H]2OCC[C@@H]12 | -4% | 0.89
COc1nc(Oc2ccc(C(=O)Nc3ccccc3)cc2)nc(Oc2ccc(C(=O)Nc3ccccc3)cc2)n1 | -14% | 1.7
O=C(NCCc1cc(F)c(F)c(F)c1)N1CC(=O)N(C2CC2)C1 | -2% | 0.43
CC(=O)Nc1cccc(NC(=O)CN2CC[C@@H](OC(C)C)C2)c1 | 12% | -1.53
